From PubChem BioAssay AID588342 (National Center for Advancing Translational Sciences (NCATS), 2011)
Where “and” joins values, the source holds several entries; their conditions need not be identical. Equal values may be shown once. Among all 360,000 compounds or so, about 25,000 (6.9%) were called active. Inconclusive results, whose numbers are uncertain, are shown with a selection of clear calls. The call rests on the fitted dose curve; in most records, active means well fitted inhibition curve with a large enough effect; inconclusive means small, poorly fitted or top-dose-only effect; inactive means flat fitted curve, though single readings scatter. Potencies beside an inconclusive call are fits to weak or partial responses and may not hold up.

Target: Luciferin 4-monooxygenase (Photinus pyralis) (UniProt P08659)
Experiment: qHTS profiling assay for firefly luciferase inhibitor/activator using purifed enzyme and Km concentrations of substrates (counterscreen for miR-21 project); further: nearly all actives have a fitted effect of over 55% in size
Details: purified FLuc, luminescence inhibition; series mostly up to 57.5 µM
Source text: MLPCN Grant: 1 R21 NS059478-01 (miR-21 grant) Assay Provider: NCGC NCGC Assay Overview: Firefly (Photinus pyralis) luciferase is one of the most commonly used transcriptional reporters for a number of reasons. It is considered one of the more dynamically responsive reporters -that is, responsive to changes in reporter transcription - as it requires no post-translational modifications and is enzymatically active directly after protein synthesis (Wood, 1998). Additionally, the half-life of the luciferase protein is short relative to other reporter-gene products (Wood, 1995). Whereas reporters with long half-lives potentially allow for increased signal due to accumulation of reporter-gene product, once accumulated in the cell, dynamic changes in reporter-gene expression may be difficult to detect(Fan and Wood, 2007; Almond et al., 2004). It has been shown that wild-type P. pyralis luciferase has a half-life of approximately […] hours in mammalian cells (Thompson et al., 1991). Firefly luciferase reporter-gene assays are also generally considered one of the most sensitive assay types (Wood, 1995; Wood, 1998). Although light produced in a bioluminescence reaction is of lower intensity than that produced during fluorescence emission, this is offset by little to no background light inherent to luminescent assays. Thus the luciferase reporter can be expressed at much lower levels than fluorescent proteins while still providing robust signal. # However, it was initially observed, in 1991, by Thompson et al., that compounds that resemble the substrates of firefly luciferase (FLuc) can act as competitive inhibitors of the enzyme, and that these compounds, upon interaction with luciferase in the cell, can actually stabilize the protein and increase its half-life. Accumulated intracellular FLuc protein can be measured as an increase in luminescence signal, upon addition of detection reagents (which contain high concentrations of FLuc substrates) commonly used in high-throughput screening. In cell-based reporter gene assays that use FLuc as the reporter gene to quantitate the potential influence of a given compound against the target biology, this apparent increase in luminescence can mistakenly be interpreted as identification of a compound that is active against the target of interest. This is the case for the miR-21 FLuc reporter gene assay used to identify inhibitors of the miR-21 pathway (PubChem AID 2289) - compounds of interest will inhibit miR-21 biogenesis/expression or activity, and are identified by causing an increase in luminescence, due to increased FLuc translation. However, FLuc inhibitory compounds that stabilize the FLuc protein will give an identical read-out, making it difficult to distinguish compounds that are active against the target from those active against FLuc. Previous profiling work to determine the prevalence of compounds that affect FLuc enzymatic activity (PubChem AID 411) identified that ~3% of the MLSMR library (then at ~72K) inhibited FLuc. […] Since the MLSMR had grown to ~350K compounds, and since it was expected that a significant percentage of compounds found active in the miR-21 FLuc assay would be FLuc inhibitors, the library was screened for activity against FLuc using a biochemical assay of purified FLuc and KM concentrations of FLuc substrates (D-luciferin and ATP).
NCGC Assay Protocol Summary: Reagents: 50mM Tris acetate, pH 7.5; 10mM Mg acetate; 10uM D-luciferin (Sigma #L9504); 10uM ATP; 0.01% Tween-20; 0.05% BSA; 10nM P. pyralis luciferase (Sigma #L9506) Control compounds used were two known firefly luciferase inhibitors (compounds (2) and (5) in Auld et al., 2010), and DMSO. […]
Tags describe the fitted curve by direction and shape.

UniProt P08659, sequence (P08659 whole entry, looked up): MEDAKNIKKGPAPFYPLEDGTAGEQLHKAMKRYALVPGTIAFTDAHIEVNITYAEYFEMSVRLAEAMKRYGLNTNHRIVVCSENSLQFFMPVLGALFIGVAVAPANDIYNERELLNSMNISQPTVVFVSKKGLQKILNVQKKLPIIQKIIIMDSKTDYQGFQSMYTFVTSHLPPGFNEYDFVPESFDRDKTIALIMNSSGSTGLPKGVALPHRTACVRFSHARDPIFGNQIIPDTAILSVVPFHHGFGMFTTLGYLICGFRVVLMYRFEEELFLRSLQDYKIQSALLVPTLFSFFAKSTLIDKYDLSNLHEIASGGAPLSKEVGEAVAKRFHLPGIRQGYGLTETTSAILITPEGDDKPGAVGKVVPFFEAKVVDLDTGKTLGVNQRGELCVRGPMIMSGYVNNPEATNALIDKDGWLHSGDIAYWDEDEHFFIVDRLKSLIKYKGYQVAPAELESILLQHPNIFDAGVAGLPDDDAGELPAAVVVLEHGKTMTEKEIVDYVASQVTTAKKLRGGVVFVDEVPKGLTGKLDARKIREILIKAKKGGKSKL

SMILES | Potency
COc1ccc(-c2nn3c(=O)cc(CN4CCN(C(=O)Nc5cc(C)ccc5C)CC4)nc3s2)cc1 | inactive
O=C(/C=C/c1ccc(F)cc1)NCc1ccco1 | inconclusive: 37.9 µM [inhibitor, single point]
COc1ccccc1OCCNC(=O)C(=O)c1c[nH]c2ccccc12 | inconclusive: 19 µM [inhibitor, partial curve]
Cc1cc(-c2ccc(S(=O)(=O)Nc3cccc(C)c3C)s2)on1 | inconclusive: 21.3 µM [inhibitor, single point]
Nc1nc(SCC(=O)Nc2cc(-c3ccccc3)nn2-c2ccccc2)n[nH]1 | inactive
Cn1nnnc1SCCCNCc1cc(Br)ccc1OCc1ccccc1 | inactive
O=C(O)CC1(CC(=O)Nc2ccc(Br)cc2)CCCCC1 | inconclusive: 21.3 µM [inhibitor, single point]
COc1ccc(Nc2nc(C(=O)N3CCc4cc(OC)c(OC)cc4C3)cs2)cc1 | inactive
COc1ccc(OC)c(CN(CCN2CCOCC2)C(=O)Nc2ccccc2)c1 | inconclusive: 37.9 µM [inhibitor, partial curve, poor fit]
CC(C)C1=Nc2cccc3cccc(c23)N1 | inconclusive: 23.9 µM [inhibitor, partial curve, poor fit]
COc1ccc(N(C)S(=O)(=O)c2cccc(C(=O)Nc3nc(C)cs3)c2)cc1 | inactive
COc1cccc(/C=C/c2ccncc2)c1OC | inconclusive: 30.1 µM [inhibitor, single point]
Cc1oc(-c2ccccc2Cl)nc1CS(=O)CC(=O)N1CCN(c2cccc(C(F)(F)F)c2)CC1 (stereo unspecified) | inactive
CC(C)(C)C(=O)OCc1nc(-c2ccc(C(F)(F)F)cc2)cs1 | active: 15.1 µM
CC(=O)c1ccc(N2CCN(C(=O)CN3C(=O)NC4(CCCCC4)C3=O)CC2)c(F)c1 | inactive
NC(=O)c1ccc(-c2ccc(Br)cc2)o1 | active: 19 µM
COc1ccccc1NC(=O)CSc1nnnn1-c1ccccc1OC | inconclusive: 19 µM [inhibitor, partial curve, poor fit]
CCCNC(=O)CN(CCc1ccccc1)S(C)(=O)=O | inconclusive: 8.49 µM [inhibitor, partial curve, poor fit]

SMILES | Potency
CCN1CCN(C(CNS(=O)(=O)c2ccc(Cl)cc2)c2ccccc2)CC1 (stereo unspecified) | inactive
O=[N+]([O-])c1ccc(C(c2sc3nc(-c4ccco4)nn3c2O)N2CCN(Cc3ccccc3)CC2)cc1 (stereo unspecified) | inconclusive: 26.9 µM [inhibitor, single point]
N#Cc1ccc(C(=O)NC2=NCCS2)cc1 | inconclusive: 16.9 µM [inhibitor, partial curve]
Cc1ccc(C(=O)Nc2ccccc2N2CCCC2)cc1S(=O)(=O)N1CCOCC1 | inactive
O=C(Nc1ccncc1)Nc1ccc(Cl)cc1 | active: 21.3 µM
CCc1cc(C(c2ccc(OC)c(OC)c2)N2CCOCC2)c(NC(=O)c2ccccc2)s1 (stereo unspecified) | inconclusive: 30.1 µM [inhibitor, partial curve, poor fit]
Clc1ccc(-c2ccc(CNCC3CCCO3)o2)cc1 (stereo unspecified) | inconclusive: 30.1 µM [inhibitor, single point]
CSc1nnc(-c2ccccc2Cl)o1 | inconclusive: 23.9 µM [inhibitor, single point]
CCC(=O)N1c2ccccc2CC1C(=O)NCCc1ccc(SC)cc1 (stereo unspecified) | inactive
C/C(=N\NS(=O)(=O)c1ccccc1)c1cc(Cl)cc(Cl)c1O | inconclusive: 23.9 µM [inhibitor, single point]
CCOC(=O)C1=C(COC(=O)/C=C/c2cccc(OC)c2OC)NC(=O)NC1C (stereo unspecified) | inactive
COc1ccccc1-c1cc(C(=O)N2CCN(c3ccccc3)CC2)no1 | inconclusive: 19 µM [inhibitor, partial curve, poor fit] and inconclusive: 37.9 µM [inhibitor, single point]
O=c1[nH]c(-c2ccc(Cl)cc2)nc(=S)[nH]1 | inconclusive: 23.9 µM [inhibitor, single point]
O=C(Cc1ccsc1)Nc1ccc2c(c1)OCO2 | inconclusive: 21.3 µM [inhibitor, single point]
CCOc1ccc(NC(=O)CN(C)C(=O)c2ccc(C)o2)cc1OCC | inactive
COc1ccc(NC(=O)C(c2ccccc2)N2Cc3ccccc3C2=O)cc1 (stereo unspecified) | inactive
COc1cccc(/C=C/C(=O)N2CCN(c3n[nH]c(=O)[nH]c3=O)CC2)c1OC | inconclusive: 23.9 µM [inhibitor, partial curve, poor fit]
CC(OC(=O)CN1C(=O)NC2(CCCCC2C)C1=O)c1ccccc1 (stereo unspecified) | inactive
